Test results taken from PubChem BioAssay AID1508623 (National Center for Advancing Translational Sciences (NCATS), 2021).
The whole screen tested about 48,000 compounds, of which about 450 (0.94%) were called active. Another 19% or so got no clear call; they are omitted. Calls come from the whole dose curve; as a rule, active = well fitted inhibition curve with a large enough effect; inconclusive = small, poorly fitted or top-dose-only effect; inactive = no such curve, though single readings can be large or run the other way. Some of the results follow.

Experiment: Primary qHTS for Identification of Small Molecule Inhibitors of Huntingtin Promoter Activity; note: nearly all actives have a fitted effect of over 50% in size
Settings: HEK293 HTT promoter firefly luciferase reporter (activity 0% = vehicle and -100% = no light), 24 h; series mostly up to 57.5 µM; activity change, negative = inhibition: at the top concentration
How it was run: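 Quantitative HTS used concentration series of up to 57.5 uM final on HEK293 luciferase reporter cells, 24 h at 37 degrees C. Readout was Dual-Glo firefly luminescence.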

Activity change, negative = inhibition, inactive:
C[C@@H]1CN(CCCn2c3ccccc3c3ccccc32)C[C@H](C)N1 -21.6%
COc1cccc(C(=O)c2sc(Nc3ccc(C)cc3C)c(S(=O)(=O)c3ccccc3)c2N)c1 -23.9%
CCOc1ccc(CCNC(=O)c2ccc(Cn3c(=O)c4cccn4c4cccnc43)cc2)cc1 -25.5%
CC(C)=CCOc1ccc(/C=C/C(=O)c2ccc(OCC=C(C)C)cc2OCC(=O)O)cc1 2.52%
CCOC(=O)c1sc(N2C(=O)c3oc4ccc(F)cc4c(=O)c3C2c2cccc(OC)c2)nc1C (stereo unspecified) 7.79%
CCN(C(=O)Cn1c(SCc2ccccc2F)nc2cccnc21)c1ccccc1 3.59%
O=C(OCc1ccccc1)c1ccc(-c2nnn(Cc3ccccc3F)n2)cc1 16.4%
O=C(CSCc1nc2cccnc2n1C1CCCCC1)NCc1cccc(Br)c1 -15.1%
CCOc1ccc(CCNC(=O)c2ccc3[nH]c(C)c(C)c3c2)cc1 -20.8%
Cc1ccc2scc(N3CCN(c4ccccc4)CC3)c(=O)c2c1 -6.02%
O=C(C1COc2ccccc2O1)N(Cc1cccnc1)c1nc2ccc(F)cc2s1 (stereo unspecified) 49.9%
O=C(Cn1c(=O)oc2ccccc21)NCc1ccccc1Cl 59.4%
CCOc1ccc2ncc3c(-c4ccccc4)nn(CC(=O)Nc4cccc(F)c4)c3c2c1 10.2%
COc1ccc(-n2c(-c3ccc(F)cc3)cn3c4c(=O)n(C)c(=O)n(C)c4nc23)cc1 56.2%
COc1ccccc1CNC(=O)Cn1c(=O)oc2ccccc21 14.9%
O=C(CSc1nc2c(c(=O)[nH]1)CCCC2)Nc1cccc(O)c1 0.912%
CCCn1cc(S(=O)(=O)c2cccc(Cl)c2)c(=O)c2cc(F)c(N3CCN(CC)CC3)cc21 -20.8%
COc1cc2[nH]c(=O)n(CCCC(=O)NCc3ccccc3Cl)c(=O)c2cc1OC -7.56%
COC(=O)c1ccccc1NC(=O)CSc1nc2sc3c(c2c(=O)[nH]1)CCCC3 -10.8%
O=C1OC(c2ccc(O)cc2)(c2ccc(O)cc2)c2ccccc21 -7.21%
COCCCNC(=O)Cn1c(=O)n(-c2cccc(C)c2)c(=O)c2c3c(sc21)CN(C(C)=O)CC3 1.06%
CON=C(C(=O)N[C@@H]1C(=O)N2C(C(=O)O)=C(CSC(=O)c3ccco3)CS[C@H]12)c1csc(N)n1 -16.9%
CCCCn1c(CCNC(=O)c2ccc(F)cc2)nc2ccccc21 -15.8%
COc1ccccc1CNc1nc(-c2ccco2)nn1C(=O)c1ccccc1[N+](=O)[O-] 31.5%
COc1cc(C(=S)N2CCOCC2)ccc1O -5.9%
COc1ccc(S(=O)(=O)N2Cc3ccccc3CC2C(=O)Nc2cccc(C)c2)cc1OC (stereo unspecified) -11.7% [at 11.5 µM]
CN(C)c1ccc(CNc2nc(-c3ccco3)nn2S(=O)(=O)c2ccc(Cl)cc2)cc1 38.2%
CC1(C)S[C@H]2[C@H](NC(=O)[C@@H](N)c3ccc(O)cc3)C(=O)N2[C@@H]1C(=O)O 1.58%
CCc1cccc(C)c1NC(=O)C1CCCN(S(=O)(=O)c2cccc3nsnc23)C1 (stereo unspecified) -20.2%
CCN(C(=O)CSc1nnc(-c2ccc(Cl)cc2)o1)c1ccccc1 0.972%
COc1ccc(/C=N/NC(=O)c2ccncc2)cc1OC 7.19%
Cc1ccc2nc(N3CCN(C(=O)C4COc5ccccc5O4)CC3)sc2c1 (stereo unspecified) 19.7%
Cc1ccnc(NS(=O)(=O)c2ccc(NC(=O)c3cc(=O)c4ccc(C)c(C)c4o3)cc2)n1 -11.1%
COc1ccc(-c2nc3ccccc3o2)cc1NC(=O)c1ccc(N2CCC(C)CC2)c([N+](=O)[O-])c1 48.2%
CCOC(=O)c1sc(NC(=O)c2nc(SCC)ncc2Cl)c(C(=O)OCC)c1C 0.695%
CN(C)CCNC(=O)Cc1ccc(NC(=O)N2CCCCc3ccccc32)cc1 -6.01%
Cc1ccc(C(=O)c2cn(Cc3ccc(F)cc3)c3nc(C)ccc3c2=O)cc1 -26.8%
CCOC(=O)c1cc(-c2ccc(C)cc2)n(CC(=O)Nc2cccc(C(C)=O)c2)c1C -11%
COCCCn1c(=N)c(S(=O)(=O)c2ccccc2)cc2c(=O)n3cccc(C)c3nc21 3.62%
CC1(C)CC(=O)c2cc(C(=O)Nc3ccc(Br)cc3)c(=O)n(-c3ccc(Cl)cc3)c2C1 -9.04%
COc1ccccc1N1CCN(C(=O)CCSCc2ccccc2F)CC1 22.3%
Cc1oc(-c2ccccc2F)nc1Cn1c(SCc2ccccc2F)nc2ccncc21 -19.2%
COCCOc1nc(-c2ccc(Cl)c(Cl)c2)n(-c2ccc(NC(=O)CCl)cc2)n1 -19.6%
CCn1cc2nc(SCc3cc(C)ccc3C)n(Cc3ccc(C)cc3)c(=O)c2n1 -12.2%
Cc1ccccc1OCc1nc2c3cnn(-c4ccccc4Br)c3ncn2n1 13.1%
COc1ccc(Nc2oc(/C=C/c3ccc(F)cc3)nc2C#N)cc1 15%
Cc1ccc(C2c3cccn3CCN2S(=O)(=O)c2ccc([N+](=O)[O-])cc2)cc1 (stereo unspecified) -16.4%
COc1cccc(CNC(=O)CSc2nc(=O)[nH]c3c2CCCC3)c1 -8.02%
Oc1c(C(c2ccc(Cl)cc2Cl)N2CCOCC2)sc2nc(-c3ccco3)nn12 (stereo unspecified) -10.4%
CC(=O)N[C@@H](Cc1ccc(O)cc1)C(=O)O -2%
CCc1ccc(NC(=O)Cn2c(=O)c(-c3ccccc3NC(C)=O)nc3ccccc32)cc1 -16%
OC[C@@H](O)[C@@H](O)[C@H](O)[C@H](O)CO 1.66%
CCOc1ccc(S(=O)(=O)N(CC(=O)NCCSCc2ccc(C)cc2)c2ccccc2)cc1 -11.4%
CCn1ccc2cc(S(=O)(=O)N3CCCN(C(=O)Nc4ccccc4C(F)(F)F)CC3)ccc21 -28%
Cc1ccc2c(=O)cc(C(=O)Nc3nnc(CC(C)C)s3)oc2c1C 8.15%
O=C(CC1N=C2c3ccccc3N=C(SCC(=O)Nc3cccc(Cl)c3)N2C1=O)NCc1cccs1 (stereo unspecified) -11.3%
CC1CCN(S(=O)(=O)c2ccc(N3CCCCS3(=O)=O)cc2)CC1 -42.5%
COc1ccc(CCNC(=O)Cn2cc(S(=O)(=O)Cc3ccccc3F)c3ccccc32)cc1OC -9.35%
Cc1cccc(Cn2c(=O)n(CCC(=O)NCc3ccc4c(c3)OCO4)c(=O)c3sccc32)c1 -10%
Cc1ccc(C)n1-c1nnc(N2CCC(C(=O)Nc3ccccc3Br)CC2)s1 -20.5%
COc1ccc2c(c1)Cc1sc(NC(=O)c3ccccc3Br)nc1-2 -6.85%
CCn1c(SCC(=O)Nc2ccc(C)cc2Br)nnc1-c1nonc1NC(C)=O -26.9%
CCc1ccc(NC(=O)c2ccc3c(c2)N(Cc2ccc(C)cc2)CCS3)cc1 19.4%
CCc1ccccc1N(C)C(=O)C1CCCN(c2ncnc3onc(-c4ccc(F)cc4)c23)C1 (stereo unspecified) -5.25%
Cc1ccc(OCCn2c(CNc3cccc(C)c3)nc3ccccc32)cc1 -26.1%
CCCN1CCc2nc(N3CCN(CC)CC3)ncc2C1 -11.3%
CCOc1cccc(C(=O)Nc2c(C(=O)c3ccc(OC)cc3)oc3ccccc23)c1 3.04%
COc1ccc(N2Cc3cccc(C(=O)Nc4ccc(C(C)C)cc4)c3C2=O)cc1 0.472%
CCCCOC(=O)c1ccc(NC(=O)c2cc(-c3ccccc3)on2)cc1 -4.58%
CC(=O)c1ccc(C(=O)N(CCCN(C)C)c2nc3c(C)c(C)ccc3s2)cc1 -19.7%
CS(=O)(=O)NCC(c1ccco1)N1CCN(c2ccccc2)CC1 (stereo unspecified) -5.66%
C=CCc1ccc(O)c(OC)c1 9.78%
Cc1ccc(NC(=O)c2sc(-n3nc(C)c(CCC(C)C)c3C)nc2C)cc1C -5.86%
CC1=C(C(=O)Nc2cccnc2)C(c2ccc(F)cc2)n2nc(SCc3ccccc3F)nc2N1 (stereo unspecified) -4.48%
CCOC(=O)c1cnc2c(C)c(Cl)ccc2c1Nc1ccc(C)cc1C -7.24%
CCN(C(=O)c1cc2c(Cl)nc3ccccc3c2s1)c1cccc(Cl)c1 0.321%
COc1cc(NC(=O)CN(C)S(=O)(=O)c2ccc3[nH]c4c(c3c2)CCCC4)cc(OC)c1OC -0.0394%
O=C(NC1CCCC1)c1ccc(CSc2nc3ccncc3n2Cc2ccccc2F)cc1 -4.37%
CCOC(=O)C1CCCN(C(=O)C2CCN(c3nnc(C)c4c(C)n(-c5ccccc5)nc34)CC2)C1 (stereo unspecified) -11.9%
COc1ccccc1C(=O)NCc1ccc2c(c1)CCN2C(=O)c1ccncc1 -12.4%
Cc1cc(NC(=O)CSc2nc3c([nH]c4ccccc43)c(=O)n2-c2cccc(Cl)c2)no1 -17%
CCn1cc(C(=O)O)c(=O)c2cc(F)c(N3CCNCC3)nc21
Cc1ccc(C)c(N2CCN(C(=O)C3CCN(S(=O)(=O)c4cn(C)cn4)CC3)CC2)c1 -18.3%
CC(=O)OCC(=O)NCCCOc1cccc(CN2CCCCC2)c1 3.09%
CCOC(=O)Cn1c(=O)oc2cc(S(=O)(=O)Nc3cc(OC)cc(OC)c3)ccc21 -18.6%
COc1ccccc1C(=O)NCc1ccc2c(c1)CCN2C(=O)c1cccc(C)c1 -28.8%
COc1ccc(N2CCN(C(=O)C3CCN(S(=O)(=O)c4cnc[nH]4)CC3)CC2)cc1 -15.8%
COC(=O)C1=C(C)NC(COC(N)=O)=C(C(=O)OC(C)C)C1c1cccc(Cl)c1Cl (stereo unspecified) -16.7%
CN1CCN(C(c2ccc(F)cc2)c2sc3nc(-c4ccco4)nn3c2O)CC1 (stereo unspecified) 33.8%
O=C(Nc1ccccc1F)C(Cc1ccccc1)n1cccc1 (stereo unspecified) -0.538%
COc1ccc(-c2c3c(=O)n(C)c(=O)n(C)c3c3c(-c4ccccc4)nc4ccccc4n23)cc1 -7.9% [at 11.5 µM]
CNC(=O)c1cc2c(n(-c3ccc(C)cc3)c1=O)CC(C)(C)CC2=O 0.745%
COc1cccc(C(=O)Nc2ccc3oc(-c4ccc5ccccc5c4)nc3c2)c1 20%
COc1cc(OC)cc(-c2nc3nc(C)c(CCC(=O)Nc4ccc(Cl)cc4)c(C)n3n2)c1 -21.5%
COC(=O)c1sccc1S(=O)(=O)N1CCN(c2ccccc2)CC1 -12%
CCOc1ccc(CCNC(=O)CCc2c(C)nc3c4c(C)cc(C)nc4nn3c2C)cc1 -8.37%
